This is an account of results in ChEMBL document CHEMBL4888484, “Replenishing the malaria drug discovery pipeline: Screening and hit evaluation of the MMV Hit Generation Library 1 (HGL1) against asexual blood stage Plasmodium falciparum ,using a nano luciferase reporter read-out” (2022).

Out of some 150,000 compounds screened, about 540 (0.36%) showed an effect of 50% or more. This is one part of the list.

This experiment concerns Plasmodium falciparum. Put plainly: Primary screen in NF54 nanoGlo assay, in single point, at 2uM, 72h; a lower Z score goes with more inhibition. Particulars: timepoint 72 hour. In kind it is functional, Erythrocyte.
As usually defined, the % Inhibition is the drop in the measured response relative to a control, in per cent. For `Cc1cc(C(=O)N2CC(O)C2)c(C)n1C1CC1`, the “% Inhibition” value is listed as -10% and the Z score is 1.97.
Take `C[C@H]1CCN(C(=O)Nc2ccc(OCc3ccccc3)nc2)CCO1`: the “% Inhibition” value is listed as 2% and the Z score is reported as -0.32.
As for `Cc1cccc([C@H]2C(=O)NCCN2C(=O)Cc2nc(C)sc2C)c1`, the “% Inhibition” value is -9% and the Z score is recorded as 1.71.
Regarding `Cc1c(Cl)cccc1S(=O)(=O)N1CCN(c2cccnc2)C(=O)C1`, the “% Inhibition” value is recorded as 32% and the Z score is -0.65.
As for `O=C(C[C@@]1(O)C(=O)N(CN2CCOCC2)c2ccccc21)c1ccccc1O`, the “% Inhibition” value was -10% and the Z score is listed as 1.08.
The matching figures for `CNS(=O)(=O)c1ccc(N[C@H]2CCC[C@H]2Oc2cc(F)cc(F)c2)c(F)c1`: -3% and 0.51.
The corresponding values for `CN(Cc1ncc[nH]1)Cc1ccc(Cl)s1` are 8% and -0.91.
The corresponding values for `O=C(NCc1cccc(F)c1)N1C[C@H]2CC[C@@H](C1)N(CC1CCC1)C2=O` are -9% and 1.7.
As for `CCOCCC(=O)Nc1cc(C)cc(C)c1`, the “% Inhibition” value is recorded as -10% and the Z score was 1.88.
In the case of `C[C@@H](Cc1ccc(Br)cc1F)NC(=O)C1(O)CCC1`, the “% Inhibition” value was -11% and the Z score came out at 1.14.
Regarding `CCn1c(=O)[nH]c2c(c1=O)C(C)(C)Cc1ccccc1-2`, the “% Inhibition” value was -14% and the Z score is recorded as 1.55.
Consider `CN(CCC[C@H]1CCCO1)c1nc(NC2CC2)nc2c1CCNCC2`, for which the “% Inhibition” value is reported as 5% and the Z score was -0.65.
For the compound `O=C(NC1CCCCC1)c1cn(-c2ccc(S(=O)(=O)N3CCCC3)cn2)cn1`, the “% Inhibition” value is -23% and the Z score turned out to be 3.68.
As for `CC(C)n1cc(C(=O)N[C@H]2COCC2(C)C)cn1`, the “% Inhibition” value is listed as 0% and the Z score is reported as 0.01.
On to `O=C(Cn1ccc2ccccc21)N1C2C=CCC1CC2` (centres undefined), for which the “% Inhibition” value amounted to 0% and the Z score came out at 0.01.
The corresponding values for `CCN(C(=O)NCCc1cccc(C(N)=O)c1)[C@H]1CCN(Cc2ccccc2)C1` are 0% and -0.1.
`CCCc1cn(C2CCN(C(=O)c3cc4c(nc3OC)CCC4)CC2)nn1`: the “% Inhibition” value is -8% and the Z score was 1.3.
For the compound `CC1(C)CC(=O)N(Cc2cn3ccccc3n2)C1=O`, the “% Inhibition” value is 33% and the Z score is on record as -3.77.
Consider `CN1CCCC(NC(=O)NCC(C)(C)C2COCC23OCCO3)C1=O` (centres undefined), for which the “% Inhibition” value is listed as -2% and the Z score was found to be 0.34.
The corresponding values for `COc1ccc(CN2C(=O)CN(C3CCCCCC3)C(=O)[C@@H]2c2ccc(Cl)cc2)cc1` are -11% and 2.04.
Consider `CNC(=O)C(=O)Nc1ccc(C)cc1C`, for which the “% Inhibition” value is given as -11% and the Z score amounted to 1.44.
In the case of `Clc1ccccc1OCCn1nc(C2CC2)nc1C1CC1`, the “% Inhibition” value is listed as 2% and the Z score is on record as -0.37.
For `CCn1c(C)nnc1Cn1ccc2ccn(Cc3ccccc3)c2c1=O`, the “% Inhibition” value is -12% and the Z score came out at 1.41.
`CCCN(CC)c1ccc(C(=O)N[C@H]2CCOC(C)(C)C2)cn1`: the “% Inhibition” value was -19% and the Z score is recorded as 3.56.
For the compound `NC(=O)C1CCN(C2CN(C(=O)NC(c3ccccc3)c3ccccc3)C2)CC1`, the “% Inhibition” value was -4% and the Z score is recorded as 0.53.
Turning to `CN=C(NCc1ccccc1N(C)CCOC)N(C)C`, the “% Inhibition” value is given as -10% and the Z score is 1.23.
The corresponding values for `CNC(=O)C1CCCCC1NC(=O)NCC(C)c1nc(C)cs1` (centres undefined) are -4% and 0.49.
Turning to `CC[C@H]1C=CCN1C(=O)c1ccc(S(C)(=O)=O)cc1`, the “% Inhibition” value turned out to be 24% and the Z score was -3.27.
On to `C[C@H](NC(=O)c1ccccc1Cl)C(=O)NCCC(c1ccccc1)c1ccccc1`, for which the “% Inhibition” value is on record as 4% and the Z score is reported as -0.7.
In the case of `O=C1CCCc2cc(NC(=O)N[C@H]3CC[C@@H](C(=O)N4CCCCC4)C3)ccc2N1`, the “% Inhibition” value is -17% and the Z score is 2.42.
As to `Cc1ccnc(Oc2ccc(-c3ccccc3)cc2)n1`, the “% Inhibition” value was -3% and the Z score came out at 0.34.
For the compound `CCNc1nc(C(=O)NC[C@H]2CCCCN2CCO)cs1`, the “% Inhibition” value was -9% and the Z score was 1.75.
`Cc1nn(C(C)C)c(C)c1Nc1cnc2ccccc2n1`: the “% Inhibition” value is -10% and the Z score is recorded as 1.74.
For `COc1cc2c(cc1OC)CN(C(=O)c1ccc(S(=O)(=O)N[C@H]3CCS(=O)(=O)C3)cc1)CC2`, the “% Inhibition” value was -16% and the Z score was determined as 2.34.
Take `C=CC[C@@H]1NC2(CCCCC2)Cc2cc(OC)c(OC)cc21`: the “% Inhibition” value was 8% and the Z score is -0.7.
With `CC(=O)c1ccc(OC23CCCN(CC2)C3)cc1C` (centres undefined), the “% Inhibition” value worked out at 0% and the Z score was 0.06.
In the case of `Cc1ccc(Nc2cc(N3CCN(C(=O)COc4ccc(Cl)c(C)c4)CC3)ncn2)cc1`, the “% Inhibition” value is listed as -8% and the Z score is 1.33.
On to `Cc1cn2nc(N3CCN([C@H]4CCS(=O)(=O)C4)CC3)sc2n1`, for which the “% Inhibition” value was 6% and the Z score is -1.35.
With `COc1cccc(NC(=O)c2ccc3nc(C(C)C)oc3c2)c1`, the “% Inhibition” value is 4% and the Z score is given as -0.67.
In the case of `COc1ccc(CCC(=O)NC2CCN(c3ncnc4c3CCCC4)CC2)cc1`, the “% Inhibition” value is -17% and the Z score is on record as 2.19.
Regarding `O=C([C@@H]1CC[C@H](CN2CCOCC2)O1)N1C[C@@H](F)C[C@H]1CO`, the “% Inhibition” value was -3% and the Z score is 0.33.
The corresponding values for `CC(C)c1nc(CCNC(=O)CCCc2ccc(F)cc2)no1` are -7% and 0.89.
